Reference: IntAct's records for PubMed 25910212

B1: Myeloid differentiation primary response protein MyD88 (Homo sapiens), Q99836 (parent)
chain: MAAGGPGAGSAAPVSSTSSLPLAALNMRVRRRLSLFLNVRTQVAADWTALAEEMDFEYLEIRQLETQADPTGRLLDAWQGRPGASVGRLLELLTKLGRDDVLLELGPSIEEDCQKYILKQQQEEAEKPLQVAAVDSSVPRTAELAGITTLDDPLGHMPERFDAFICYCPSDIQFVQEMIRQLEQTNYRLKLCVSDRDVLPGTCVWSIASELIEKRCRRMVVVVSDDYLQSKECDFQTKFALSLSPGAHQKRLIPIKYKAMKKEFPSILRFITVCDYTNPCTKSWFWTRLAKALSLP
partner: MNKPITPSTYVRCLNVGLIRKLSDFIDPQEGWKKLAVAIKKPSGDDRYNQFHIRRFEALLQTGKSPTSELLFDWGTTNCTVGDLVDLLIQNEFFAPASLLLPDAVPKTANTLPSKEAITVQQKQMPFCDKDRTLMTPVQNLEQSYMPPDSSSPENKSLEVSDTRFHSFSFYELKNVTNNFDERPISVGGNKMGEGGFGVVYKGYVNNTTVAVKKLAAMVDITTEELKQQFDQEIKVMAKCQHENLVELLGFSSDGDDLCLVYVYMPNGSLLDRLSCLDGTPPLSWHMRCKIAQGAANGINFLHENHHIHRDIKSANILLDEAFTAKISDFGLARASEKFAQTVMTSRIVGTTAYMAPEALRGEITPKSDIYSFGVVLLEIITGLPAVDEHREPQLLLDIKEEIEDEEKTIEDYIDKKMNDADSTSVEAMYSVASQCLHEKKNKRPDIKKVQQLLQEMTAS
B2: 5-hydroxytryptamine receptor 1B (Homo sapiens), P28222 (parent)
chain: MEEPGAQCAPPPPAGSETWVPQANLSSAPSQNCSAKDYIYQDSISLPWKVLLVMLLALITLATTLSNAFVIATVYRTRKLHTPANYLIASLAVTDLLVSILVMPISTMYTVTGRWTLGQVVCDFWLSSDITCCTASILHLCVIALDRYWAITDAVEYSAKRTPKRAAVMIALVWVFSISISLPPFFWRQAKAEEEVSECVVNTDHILYTVYSTVGAFYFPTLLLIALYGRIYVEARSRILKQTPNRTGKRLTRAQLITDSPGSTSSVTSINSRVPDVPSESGSPVYVNQVKVRVSDALLEKKKLMAARERKATKTLGIILGAFIVCWLPFFIISLVMPICKDACWFHLAIFDFFTWLGYLNSLINPIIYTMSNEDFKQAFHKLIRFKCTS

Variants of: B1
Conditions: with irak4_human IRAK4, Q9NWZ3
In the case of R196C, the “effect of a mutation on the interaction” value is reported as “with no effect”.

Variants of: B1
Conditions: with irak4_human IRAK4, Q9NWZ3
Remark: another data set of the same source
With R196C the “effect of a mutation on the interaction” value was “disrupting interaction strength”.

Variants of: B2
Conditions: with mdfi_human MDFI
With MEEPGAQCAPPPPAGSETWVPQANLSSAPSQNCSAKDYIYQDSISLPWKVLLVMLLALITLATTLSNAFVIATVYRTRKLHTPANYLIASLAVTDLLVSILVMPISTMYTVTGRWTLGQVVCDCWLSSDITCCTASILHLCVIALDRYWAITDAVEYSAKRTPKRAAVMIALVWVFSISISLPPFFWRQAKAEEEVSECVVNTDHILYTVYSTVGAFYFPTLLLIALYGRIYVEARSRILKQTPNRTGKRLTRAQLITDSPGSTSSVTSINSRVPDVPSESGSPVYVNQVKVRVSDALLEKKKLMAARERKATKTLGIILGAFIVCWLPFFIISLVMPICKDACWFHLAIFDFFTWLGYLNSLINPIIYTMSNEDFKQAFHKLIRFKCTS [F124C] the “effect of a mutation on the interaction” value was “with no effect”.
